Screen size: about 48,000 compounds; about 550 (1.1%) were called active. Roughly 4% stayed inconclusive and do not appear here. Rule as the data show it: active = potency below about 15 µM; inconclusive = mostly about 16 µM to 33 µM; inactive = weaker than that. The list shows a part of the results.
molecular target: Lysosomal acid glucosylceramidase (Homo sapiens) (UniProt P04062); test: Glucocerebrosidase; conditions: purified enzyme, resorufin glucoside fluorescence (screen aimed at inhibitors), 20 min;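 also: the screen sought inhibitors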
Procedure, shortened: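 Compounds titrated against 0.2 nM normal enzyme, 30 uM resorufin beta-D-glucopyranoside substrate, citrate/phosphate buffer with taurocholate and tween-20, pH 5.9. Reaction ran 20 min at room temperature; fluorescence (Ex 548/Em 600) gave AC50.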
Potency is read from the fitted curve at half-maximal effect.

Sequence of UniProt P04062 (P04062 whole entry, looked up): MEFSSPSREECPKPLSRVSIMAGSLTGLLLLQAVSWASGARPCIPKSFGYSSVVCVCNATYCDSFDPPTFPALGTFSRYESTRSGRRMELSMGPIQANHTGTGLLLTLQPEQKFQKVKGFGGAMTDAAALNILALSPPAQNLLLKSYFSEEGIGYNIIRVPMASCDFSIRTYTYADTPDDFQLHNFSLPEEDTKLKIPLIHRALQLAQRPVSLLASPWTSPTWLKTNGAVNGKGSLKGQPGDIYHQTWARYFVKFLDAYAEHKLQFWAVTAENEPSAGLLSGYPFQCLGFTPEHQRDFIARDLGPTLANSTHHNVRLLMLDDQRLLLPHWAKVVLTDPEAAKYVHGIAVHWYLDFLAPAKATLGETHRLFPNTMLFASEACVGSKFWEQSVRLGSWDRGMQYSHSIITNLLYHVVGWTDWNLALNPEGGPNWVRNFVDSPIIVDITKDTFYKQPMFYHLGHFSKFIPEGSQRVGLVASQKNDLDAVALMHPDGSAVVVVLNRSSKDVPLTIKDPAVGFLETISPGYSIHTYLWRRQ

Potency, inactive:
O=C(CCn1c(=S)[nH]c2ccccc2c1=O)NCCCN1CCCC1=O > 76.9 µM
CCOC(=O)C1CCN(C(=O)COc2ccc(S(=O)(=O)NC(C)(C)C)cc2)CC1 > 76.9 µM
CCOC(=O)C1=C(N)N2C(=O)C(C)SC2=C(C(=O)OCC)C1c1ccccc1 (stereo not drawn) > 76.9 µM
FC(F)(F)c1ccc(N2CCN(c3ncnc4c3nnn4Cc3ccccc3)CC2)nc1 > 76.9 µM
Cc1cc(NC(=O)c2c(-c3ccccc3Cl)noc2C)no1 > 76.9 µM
Cc1cc(C)nc(-n2nc(C)cc2NC(=O)CN2CCCC(C)C2)n1 (stereo not drawn) > 76.9 µM
COc1ccc(CCN/C=C2/CC(=O)NC2=O)cc1OC > 76.9 µM
CCOC(=O)c1cccc(C(=O)OCC)n1 > 76.9 µM
CN(C)c1ccc(P(=O)(OC2CCCCC2)C(O)c2cccnc2)cc1 (stereo not drawn) > 76.9 µM
CCOc1cc(-c2nc(-c3cc(OC)c(OC)c(OC)c3)no2)cc(OCC)c1OCC > 76.9 µM
O=C(Cn1c(-c2ccc(Cl)cc2)noc1=O)N1CCN(c2ccccc2F)CC1 > 76.9 µM
CCOC(=O)N1CCN(c2nc(C)c3c(n2)CCCC3=O)CC1 > 76.9 µM
O=C(CSc1ccc2c(c1)OCCO2)Nc1ccc(Cl)cn1 > 76.9 µM
CC(C)C(=O)Nc1nnc(SCC(=O)NCc2cccs2)s1 > 76.9 µM
Cc1ccc(NC(=O)c2oc3c(c2C)C(=O)CC(C)(C)C3)cc1 > 76.9 µM
O=C(CSc1nc2ccncc2[nH]1)Nc1ccccc1C(F)(F)F
CCCNS(=O)(=O)c1ccc(OCC(=O)N2CCC(C(=O)OCC)CC2)cc1 > 76.9 µM
Cc1ccc(C(=O)n2cnnc2N)cc1C > 76.9 µM
c1coc(Cn2nnnc2CN2CCN(C3CCCC3)CC2)c1 > 76.9 µM
CCOC(=O)c1oc2ccccc2c1NC(=O)c1cccc(OC)c1OC > 76.9 µM
CC(=O)NC1(C(F)(F)F)C(=O)Nc2c1c(=O)[nH]c(=O)n2Cc1ccco1 (stereo not drawn) > 76.9 µM
N#Cc1ccc2ccn(CC(=O)NCc3ccccc3)c2c1 > 76.9 µM
COCCNC(=O)C(c1cccs1)N(C(=O)Cn1nnc2ccccc21)c1ccccc1 (stereo not drawn) > 76.9 µM
COCCNC(=O)CSc1nc2ccccc2c2nc(C)nn12 > 76.9 µM
Cc1cc(NS(=O)(=O)c2ccc(NC(=O)CCCOc3ccccc3)cc2)no1 > 76.9 µM
CCOC(=O)c1cnc(SCc2ccccc2)nc1N > 76.9 µM
O=C(Nc1nnc(C23CC4CC(CC(C4)C2)C3)s1)c1ccco1 > 76.9 µM
COCCCNc1nc2c(c(=O)[nH]c(=O)n2C)n1CCCc1ccccc1 > 76.9 µM
CC(C)(C)N1C(=O)c2ccc(C(=O)O)cc2C1=O > 76.9 µM
CCCC(=O)Nc1ccc(NC(=O)c2ccco2)c(OC)c1 > 76.9 µM
CNC(=O)CN(c1cccc(Br)c1)S(C)(=O)=O > 76.9 µM
CCOC(=O)c1ccc(N2C(=O)c3n[nH]c(C)c3C2c2ccc(O)cc2)cc1 (stereo not drawn) > 76.9 µM
COC(=O)c1cccc(NS(=O)(=O)c2cccs2)c1C > 76.9 µM
COc1ccc(CNc2nc(SCC(=O)NCc3ccco3)nc3ccccc23)cc1 > 76.9 µM
Cc1cccc(C)c1NC(=O)CSCCO > 76.9 µM
NC(=O)CSc1nnc(Cc2ccc3c(c2)OCO3)n1C1CCCCC1 > 76.9 µM
O=C(Nc1c(C(=O)N2CCOCC2)cnn1-c1ccccc1)c1ccco1 > 76.9 µM
CCOc1cc(S(=O)(=O)NCc2ccc3c(c2)OCO3)ccc1F > 76.9 µM
O=C(O)CCC(=O)N1CCc2cc(S(=O)(=O)NCc3cccs3)ccc21 > 76.9 µM
CCn1c(=O)cc(OCC(=O)NCCCN2CC(C)CC(C)C2)c2ccccc21 (stereo not drawn) > 76.9 µM
CCCn1nc(NS(C)(=O)=O)c2cc3cccc(C)c3nc21 > 76.9 µM
COC(=O)c1ccccc1NC(=O)CN1CCC(NC(=O)c2ccccc2C)CC1 > 76.9 µM
CC(=O)c1c(N2CCOCC2)nc(=S)n(-c2cc(C)ccc2C)c1C > 76.9 µM
CC(Oc1ccc(Br)cc1)C(=O)N1CCc2ccccc21 (stereo not drawn) > 76.9 µM
c1cncc(C(c2nnnn2C2CCCC2)N2CCCC2)c1 (stereo not drawn) > 76.9 µM
O=C(CSCc1n[nH]c(=O)[nH]1)NCCOc1cccc(Oc2ccccc2)c1 > 76.9 µM
CC1CCCCN1CCCn1c(=S)[nH]c2ccccc2c1=O (stereo not drawn) > 76.9 µM
Cc1nnc(NC(=O)CSc2nnc(CCc3nc4ccccc4[nH]3)n2C)s1 > 76.9 µM
COc1ccc(CN(Cc2cccnc2)S(=O)(=O)c2ccc(-n3cnnn3)c(C)c2)cc1OC > 76.9 µM
O=C(Nc1ccccc1)N1CCC(C(=O)N2CCN(S(=O)(=O)c3cccc(F)c3)CC2)CC1 > 76.9 µM
COc1ccc(Cl)cc1N1C(=O)[C@@H]2C(c3cccc(OC)c3OC)=NO[C@@H]2C1=O > 76.9 µM
C#CCN1C(=O)C(O)(CC(=O)c2cccc(OC)c2)c2ccccc21 (stereo not drawn) > 76.9 µM
COc1ccc(S(=O)(=O)NC(CC(=O)NCCc2ccc(OC)c(OC)c2)c2ccco2)cc1 (stereo not drawn) > 76.9 µM
CC(=O)c1ccc(S(=O)(=O)N(Cc2cc3cc4c(cc3[nH]c2=O)OCCO4)CC2CCCO2)cc1 (stereo not drawn) > 76.9 µM
COc1ccc(C/C(O)=C(\C#N)c2nc3ccccc3s2)cc1 > 76.9 µM
CCc1ccc(NS(=O)(=O)c2ccc3[nH]cc(C(=O)N4CCCCC4)c(=O)c3c2)cc1 > 76.9 µM
CCOC(=O)C(CC)Sc1nc(-c2ccc(OC)cc2)nc2c1c(=O)n(C)c(=O)n2C (stereo not drawn) > 76.9 µM
N#Cc1c2n(c(=O)[nH]c1=O)CCCCC2 > 76.9 µM
COC(=O)c1c(NC(=O)CN2CCC(C(N)=O)CC2)c2c(C)cccc2n1C > 76.9 µM
CCOC(=O)c1c(CN(C)C)n(C)c2ccc(OC(C)=O)cc12 > 76.9 µM
CCCCn1c(SCC(=O)NCc2ccccc2)nc2ccc(N3CCOCC3)cc2c1=O > 76.9 µM
CCN1C2=C(C(=O)CCC2)C(c2ccc(O)cc2)C2=C1CCCC2=O > 76.9 µM
O=S(=O)(Nc1ccc2c(c1)OCCO2)c1cnc[nH]1 > 76.9 µM
CC(C)(C)NC(=O)C(c1ccco1)N(C(=O)c1ccc(CN2CCOCC2)o1)c1ccccc1 (stereo not drawn) > 76.9 µM
C=CCn1c(-c2ccccc2)c[nH]c1=S > 76.9 µM
CCOc1ccc2c(c1)cc(CN(C(=O)CC)C1CCCCC1)c1nnnn12 > 76.9 µM
O=C(CSc1nnc(CNC(=O)c2c(F)cccc2Cl)o1)Nc1ccccc1 > 76.9 µM
COc1ccc(CCC(=O)Nc2nc3c(s2)CN(C)CC3)cc1OC > 76.9 µM
CCn1ccc(C(=O)Nc2ccc(S(=O)(=O)Nc3ccccc3OC)cc2)n1 > 76.9 µM
CCn1c(Cc2ccccc2)nnc1SCC(=O)Nc1ccc2c(c1)OCO2 > 76.9 µM
COc1cc2c(cc1OC)CN(C(=O)CC1CC3CCC1C3)CC2 (stereo not drawn) > 76.9 µM
COc1cccc(NC(=O)N2CCC(C(=O)Nc3ccc(C)cc3C)CC2)c1 > 76.9 µM
O=C(NCC1CCCO1)C(C(=O)c1ccccc1)n1cc(Cl)ccc1=O (stereo not drawn) > 76.9 µM
CC(CN1CCCCC1)OC(=O)c1ccc(Cl)cc1 (stereo not drawn) > 76.9 µM
CCc1ccccc1NC(=O)N1C2CCCC1CC(NC(C)=O)C2 (stereo not drawn) > 76.9 µM
Cc1ccc(SCc2[nH]nc3c2C2(C(=O)N(C)c4ccccc42)C(C#N)=C(N)O3)cc1 (stereo not drawn) > 76.9 µM
COc1ccc(-c2nc(NC(=O)C3CCN(c4nc5ccccc5o4)CC3)sc2C)cc1 > 76.9 µM
O=C(NCc1ccc(N2CCCC2=O)cc1)NC1CCCCC1 > 76.9 µM
COc1ccc(OC)c(C2C(C#N)=C(N)Oc3c2c(C)nn3-c2ccc(C)cc2)c1 (stereo not drawn) > 76.9 µM
O=C(COc1ccc(C(=S)N2CCOCC2)cc1)N1CCCC1 > 76.9 µM
COc1ccc(-c2cc(C(F)(F)F)nc(SCCC(=O)NCc3ccco3)n2)cc1 > 76.9 µM
O=C(NCC(=O)N(CCc1ccccc1)C(C(=O)NC1CCCC1)c1cccnc1)c1ccco1 (stereo not drawn) > 76.9 µM
COc1ccc(CC(=O)Nc2cc(C)on2)cc1 > 76.9 µM
Cn1c2ccccc2c2nnc(SC3CCOC3=O)nc21 (stereo not drawn) > 76.9 µM
CC1Cc2cc(/C(O)=C3\C(=O)C(=O)N(CCN(C)C)C3c3ccccc3F)ccc2O1 (stereo not drawn) > 76.9 µM
CNC(=O)c1ccc2nc(NC(C)=O)sc2c1 > 76.9 µM
Nc1ccc(S(=O)(=O)Nc2ccc(S(N)(=O)=O)cc2)cc1 > 76.9 µM
CC(C)CC(c1nnnn1CC1CCCO1)N1CCN(Cc2ccc3c(c2)OCO3)CC1 (stereo not drawn) > 76.9 µM
